Measured values: a collection of fitness landscapes (doi:10.1016/j.celrep.2020.107928)
Over roughly 81,000 sequences, “one-hybrid fitness for binding NBS DNA” has its median near -0.1; the highest 2% begin near 0.36. Some of the results follow.

B1: Caulobacter ParB omega fusion; a variant is named by its letters at X, in order, B8GW30 (parent)
chain: MESVVVGEPGMSEGRRGLGRGLSALLGEVDAAPAQAPGEQLGGSREAPIEILQRNPDQPRRTFREEDLEDLSNSIREKGVLQPILVRPSPDTAGEYQIVAGERAWRAAQRAGLKTVPIMVRELDDLAVLEIGIIENVQRADLNVLEEALSYKVLMEKFERTQENIAQTIGKSXSHVANXMRLLXLPDEVQSYLVSGELTAXHARAIAAAADPVALAKQIIEGGLSVRETEALARKAPNLSAGKSKGGRPPRVKDTDTQALESDLSSVLGLDVSIDHRGSTGTLTITYATLEQLDDLCNRLTRGI

Variants of: B1
Assay: one-hybrid fitness for binding NBS DNA (the Noc-binding site; scaled: cognate 1, non-cognate 0); higher = stronger binding
Conditions: with NBS DNA site
Summary of the method: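 The reporter was HIS3, with the binding site 19 bp from the promoter, in E. coli USO used for bacterial one-hybrid selection of Caulobacter ParB libraries with four specificity codons randomised. Growth was on M9 lacking histidine, with 0.1 mM IPTG and 5 mM 3-AT, for 48 hours at 37°C. Illumina sequencing covered plasmids before and after selection; three replicate libraries were pooled and variants with under 10 reads dropped. A fitness score is the log change in variant-to-wild-type read ratio, rescaled to the cognate and non-cognate references.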

| Variant | one-hybrid fitness for binding NBS DNA |
| --- | --- |
| ATSD | ≤ 0.2 |
| VQPN | ≤ 0.2 |
| HSLR | ≤ 0.2 |
| KAAV | ≤ 0.2 |
| TPYA | ≤ 0.2 |
| RNHY | ≤ 0.2 |
| YQRS | ≤ 0.2 |
| HAFI | ≤ 0.2 |
| GKPN | ≤ 0.2 |
| DNAY | ≤ 0.2 |
| TFSV | ≤ 0.2 |
| FFTC | ≤ 0.2 |
| CKGC | ≤ 0.2 |
| SLMY | ≤ 0.2 |
| YLKT | ≤ 0.2 |
| ILCA | ≤ 0.2 |
| SRHP | ≤ 0.2 |
| GRTK | ≤ 0.2 |
| RAET | ≤ 0.2 |
| NLDS | ≤ 0.2 |
| QPPN | ≤ 0.2 |
| WYNY | ≤ 0.2 |
| RYKF | ≤ 0.2 |
| MHHR | ≤ 0.2 |
| DMRN | ≤ 0.2 |

| Variant | one-hybrid fitness for binding NBS DNA |
| --- | --- |
| QHGL | ≤ 0.2 |
| PYYR | ≤ 0.2 |
| MVVT | ≤ 0.2 |
| LDWG | ≤ 0.2 |
| MHNM | ≤ 0.2 |
| IIKR | ≤ 0.2 |
| STPM | ≤ 0.2 |
| SETM | ≤ 0.2 |
| FDTG | ≤ 0.2 |
| AFSM | ≤ 0.2 |
| RHKR | 0.701 |
| PWTI | ≤ 0.2 |
| IQVN | ≤ 0.2 |
| NFYG | ≤ 0.2 |
| IWPR | ≤ 0.2 |
| KYPV | ≤ 0.2 |
| ESTC | ≤ 0.2 |
| SRME | ≤ 0.2 |
| HVNS | ≤ 0.2 |
| TFDL | ≤ 0.2 |
| RKML | ≤ 0.2 |
| SAEQ | ≤ 0.2 |
| ARSA | ≤ 0.2 |
| GLFE | ≤ 0.2 |
| CLLK | ≤ 0.2 |

| Variant | one-hybrid fitness for binding NBS DNA |
| --- | --- |
| PYMN | ≤ 0.2 |
| CALT | ≤ 0.2 |
| QEIP | ≤ 0.2 |
| QISG | ≤ 0.2 |
| HKSE | ≤ 0.2 |
| TNLY | ≤ 0.2 |
| VAKE | ≤ 0.2 |
| ECGM | ≤ 0.2 |
| QREH | 0.258 |
| HIRR | ≤ 0.2 |
| CMID | ≤ 0.2 |
| TAHK | ≤ 0.2 |
| FEEV | ≤ 0.2 |
| GRAF | ≤ 0.2 |
| SPYY | ≤ 0.2 |
| KPGT | ≤ 0.2 |
| FMVT | ≤ 0.2 |
| SKDG | ≤ 0.2 |
| LDTD | ≤ 0.2 |
| KKRA | ≤ 0.2 |
| PHAE | ≤ 0.2 |
| QTWC | ≤ 0.2 |
| DPFE | ≤ 0.2 |
| QSYQ | ≤ 0.2 |
| CTHP | ≤ 0.2 |

| Variant | one-hybrid fitness for binding NBS DNA |
| --- | --- |
| TRMS | ≤ 0.2 |
| SMGA | ≤ 0.2 |
| LTAH | ≤ 0.2 |
| TSWG | ≤ 0.2 |
| RCNC | 0.302 |
| QFQI | ≤ 0.2 |
| SYQT | ≤ 0.2 |
| QAKW | 0.263 |
| TYPF | ≤ 0.2 |
| AEQK | ≤ 0.2 |
| FVKY | ≤ 0.2 |
| TNET | ≤ 0.2 |
| IYAR | ≤ 0.2 |
| MHTT | ≤ 0.2 |
| ILQS | ≤ 0.2 |
| EVVF | ≤ 0.2 |
| VETV | ≤ 0.2 |
| NQSR | ≤ 0.2 |
| PGHK | ≤ 0.2 |
| ATYL | ≤ 0.2 |
| AVSL | ≤ 0.2 |
| IRMR | 0.223 |
| HMHR | ≤ 0.2 |
| VKLS | ≤ 0.2 |
| PRHT | ≤ 0.2 |

| Variant | one-hybrid fitness for binding NBS DNA |
| --- | --- |
| HTGM | ≤ 0.2 |
| FQRT | ≤ 0.2 |
| PDWR | ≤ 0.2 |
| FVKS | ≤ 0.2 |
| YHNW | ≤ 0.2 |
| GCKS | ≤ 0.2 |
| DYRS | ≤ 0.2 |
| KRYC | ≤ 0.2 |
| QCNY | 0.297 |
| NMLD | ≤ 0.2 |
| YKCG | ≤ 0.2 |
| EDKT | ≤ 0.2 |
| HSNG | ≤ 0.2 |
| AITR | ≤ 0.2 |
| LCHC | ≤ 0.2 |
| CPTF | ≤ 0.2 |
| TRQC | ≤ 0.2 |
| RPDS | ≤ 0.2 |
| RFAN | ≤ 0.2 |
| MLVG | ≤ 0.2 |
| AENK | ≤ 0.2 |
| AIGG | ≤ 0.2 |
| MNRR | ≤ 0.2 |
| GSGF | ≤ 0.2 |
| FKQT | ≤ 0.2 |

| Variant | one-hybrid fitness for binding NBS DNA |
| --- | --- |
| NRPN | ≤ 0.2 |
| GRGF | ≤ 0.2 |
| MYLV | ≤ 0.2 |
| CNRD | ≤ 0.2 |
| RHKE | ≤ 0.2 |
| RLMW | ≤ 0.2 |
| RTTA | 0.252 |
| WVSC | ≤ 0.2 |
| RSVC | ≤ 0.2 |
| CPRR | ≤ 0.2 |
| EAPL | ≤ 0.2 |
| RFYM | ≤ 0.2 |
| SQWR | ≤ 0.2 |
| EVII | ≤ 0.2 |
| LFAP | ≤ 0.2 |
| GEST | ≤ 0.2 |
| QHHA | 0.238 |
| GARD | ≤ 0.2 |
| NVTT | ≤ 0.2 |
| PRER | ≤ 0.2 |
| FVIV | ≤ 0.2 |
| TKHG | ≤ 0.2 |
| AIVQ | ≤ 0.2 |
| QDPY | ≤ 0.2 |
| HTAG | ≤ 0.2 |

| Variant | one-hybrid fitness for binding NBS DNA |
| --- | --- |
| RSPR | ≤ 0.2 |
| VYNL | ≤ 0.2 |
| SVDR | ≤ 0.2 |
| WGSW | ≤ 0.2 |
| REIT | ≤ 0.2 |
| TYTT | ≤ 0.2 |
| IEHY | ≤ 0.2 |
| DTDF | ≤ 0.2 |
| NQHG | ≤ 0.2 |
| PESG | ≤ 0.2 |
| EECT | ≤ 0.2 |
| SPEC | ≤ 0.2 |
| SYFR | ≤ 0.2 |
| YRFL | ≤ 0.2 |
| AVIF | ≤ 0.2 |
| FHPC | ≤ 0.2 |
| QLDE | ≤ 0.2 |
| VSRQ | ≤ 0.2 |
| QMSW | ≤ 0.2 |
| AWEF | ≤ 0.2 |
| RNIC | ≤ 0.2 |
| TIRF | ≤ 0.2 |
| FMSS | ≤ 0.2 |
| LHLV | ≤ 0.2 |
| RCFK | ≤ 0.2 |

| Variant | one-hybrid fitness for binding NBS DNA |
| --- | --- |
| AVFC | ≤ 0.2 |
| HNST | ≤ 0.2 |
| QCNL | ≤ 0.2 |
| RVTS | 0.392 |
| QRLR | 0.945 |
| RHGM | ≤ 0.2 |
| AIHF | ≤ 0.2 |
| TPDT | ≤ 0.2 |
| RETY | ≤ 0.2 |
| YSVA | ≤ 0.2 |
| RCTF | ≤ 0.2 |
| WMAW | ≤ 0.2 |
| ALIG | ≤ 0.2 |
| FGIR | ≤ 0.2 |
| THSM | ≤ 0.2 |
| VADT | ≤ 0.2 |
| YMTG | ≤ 0.2 |
| MLTT | ≤ 0.2 |
| FTYK | ≤ 0.2 |
| VLGA | ≤ 0.2 |
